In PubChem BioAssay AID504466 (National Center for Advancing Translational Sciences (NCATS), 2011):
About 4,200 (1.3%) of roughly 330,000 compounds were called active. Inconclusive results, whose numbers are uncertain, are shown with a selection of clear calls. Calls follow the shape of the dose curve; as a rule, active = well fitted activation curve with a large enough effect; inconclusive = small, poorly fitted or top-dose-only effect; inactive = no such curve, though single readings can be large or run the other way. A potency beside an inconclusive call is a rough fit, not a confirmed value.

experiment: qHTS screen for small molecules that induce genotoxicity in human embryonic kidney (HEK293T) cells expressing luciferase-tagged ELG1; conditions: HEK293T ELG1-luciferase reporter, luminescence, 16 h; series mostly up to 46 µM; also: nearly all actives have a fitted effect of over 60% in size
Method in brief: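 ELG1-luciferase HEK293T cells, 2,000/well; compound pinned in; 16 hr, 37 °C, 5% CO2; ONE-Glo, 30 min RT; luminescence on CCD imager.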
Potency is read from the fitted curve at half-maximal effect; tags tell the direction and shape of the fitted curve.

Row | SMILES | Potency
1 | Cc1cccc(NC(=O)Nc2ccccn2)c1C | inactive
2 | Cc1cc(C)n2nc(-c3ccc(Cl)cc3)cc2n1 | active: 14.6 µM
3 | COc1ccc(-c2cc3ccccc3s2)cc1[C@H]1[C@H]2C=CC[C@@H](C)[C@@H]2C(=O)N1Cc1ccccc1 | inconclusive: 10.3 µM [activator, partial curve]
4 | NC(=O)c1cc(Cc2ccccc2)sc1NC(=O)c1ccco1 | inconclusive: 16.4 µM [activator, partial curve]
5 | O=C(Nc1nc2cc3c(cc2s1)OCCO3)c1ccncc1 | inconclusive: 2.91 µM [activator, partial curve, poor fit]
6 | O=C(/C=C/c1ccc(Cl)c(Cl)c1)N1CCc2ccccc21 | inconclusive: 2.06 µM [activator, full curve, poor fit]
7 | COc1cccc(C(=O)NC(=S)Nc2ccc(N(C)C)cc2)c1 | inconclusive: 14.6 µM [activator, partial curve]
8 | CCNC(=O)c1c(O)c2cccc3c2n(c1=O)CC3 | inconclusive: 16.4 µM [activator, single point]
9 | CSC(=S)N/N=C(\C)c1ccccc1 | inconclusive: 13 µM [activator, partial curve]
10 | O=C(c1cc2ccccc2oc1=O)N1CCOCC1 | inconclusive: 20.6 µM [activator, partial curve]
11 | COc1ccc(CN(C)C(=O)C23CC4CC(CC(Cl)(C4)C2)C3)c(OC)c1OC | inactive
12 | O=C(COc1ccccc1)NCC(=O)N/N=C/c1ccc(O)cc1O | inconclusive: 29.1 µM [activator, partial curve, poor fit]
13 | CCCCCCCCCCCCCCCC[n+]1cccc(C(=O)N(CC)CC)c1 | inactive
14 | O=C(CS(=O)(=O)Cc1ccccc1)NCCc1ccc(F)cc1 | inactive
15 | Cn1nc(C(F)(F)F)cc1-c1ccc(/C=C(\C#N)C(=O)c2ccccc2)s1 | inconclusive: 20.6 µM [activator, partial curve, poor fit]
16 | Cc1ccc(Nc2nc(N)c([N+](=O)[O-])c(NCCO)n2)cc1 | inconclusive: 18.3 µM [activator, partial curve, poor fit]
17 | Cc1ccc(N=c2c([N+](=O)[O-])nn(-c3ccccc3)n2O)c(C)c1 | inconclusive: 29.1 µM [activator, single point]
18 | CCN(c1ccccc1)S(=O)(=O)c1ccc(OC)c(NC(=O)CNC)c1 | inactive
19 | COc1ccc(N=C2C(=O)Nc3ccccc32)cc1 | inactive
20 | Cc1cccc(NC(=O)[C@@H](NC(=O)[C@@H]2Cc3ccccc3CN2)C(C)C)c1 | inactive
21 | O=C(Nc1nn(Cc2ccc(Cl)cc2)cc1Br)c1ccc(COc2ccccc2Cl)o1 | inactive
22 | O=C(COC(=O)CCc1ccccc1)NNC(=O)c1ccccc1 | inactive
23 | COc1ccc(Cn2cc3c(-c4ccc(F)cc4)nnc-3c3cc(OC)c(OC)cc32)cc1 | inconclusive: 29.1 µM [activator, single point]
24 | CCCOC(=O)c1cccc(NC(=O)C(C)(C)C)c1 | inconclusive: 20.6 µM [activator, partial curve, poor fit]
25 | C/C(=N/Oc1nc(C)cc(C)n1)c1ccccc1 | inconclusive: 23.1 µM [activator, partial curve]

Row | SMILES | Potency
26 | CCOc1ccc(-n2nc3ccc(N)cc3n2)cc1 | inconclusive: 0.461 µM [activator, full curve, poor fit]
27 | Cc1ccc(SCC(=O)NC2CCS(=O)(=O)C2)cc1C (stereo not given) | inactive
28 | CC(C)CC(C(=O)O)N1C(=O)C2C3C=CC(C2C1=O)C1C(=O)N(C(CC(C)C)C(=O)O)C(=O)C31 (stereo not given) | inactive
29 | O=C(NCc1cccnc1)c1cnc2n(c1=O)CCS2 | inactive
30 | CCc1ccc(CNc2ccc3c(c2)ncn3C(C)(C)C)cc1 | inconclusive: 5.17 µM [activator, partial curve, poor fit]
31 | Cc1nc2scc(C)n2c(=O)c1S(=O)(=O)NCC1CCN(Cc2ccc(F)cc2)CC1 | inactive
32 | COc1ccc(-n2nc3cc(N)c(Br)cc3n2)cc1 | active: 18.3 µM
33 | CCc1ccc(NC(=O)Nc2cnccn2)cc1 | inconclusive: 16.4 µM [activator, partial curve]
34 | O=C(/C=C/c1c(Cl)cccc1Cl)n1cccn1 | inconclusive: 29.1 µM [activator, single point]
35 | NC(=O)COc1ccc(/C=N\NC(=O)c2ccc(-c3ccccc3)cc2)cc1 | inactive
36 | CN(c1ccccc1)S(=O)(=O)c1cccc(NC(=O)c2cccc(C#N)c2)c1 | inactive
37 | O/N=C/c1ccc(OCc2ccccc2F)c(Cl)c1 | active: 5.17 µM
38 | COc1ccc(C(=O)Nc2cc3c(cc2N2CCCCC2)n(C)c(=O)n3C)cc1OC | inconclusive: 10.3 µM [activator, partial curve, poor fit]
39 | O=C1CCCC2=C1C(c1cccc(O)c1)c1c(ccc3ncccc13)N2 (stereo not given) | inconclusive: 18.3 µM [activator, single point]
40 | Cc1nc2nc(-c3ccc(Cl)cc3)[nH]n2c(=O)c1Cc1ccccc1 | inconclusive: 16.4 µM [activator, partial curve]
41 | COc1ccc(-c2csc(NC(=O)C3=COCCO3)n2)c(OC)c1 | active: 20.6 µM
42 | Clc1cccc2sc(N3CCCCC3)nc12 | active: 23.1 µM
43 | Cc1nc(C)c(C(=O)OCC(=O)NCc2ccccc2)s1 | inactive
44 | Cc1ccc(C(=O)CSc2nnc(C3CC3)n2C2CC2)s1 | inconclusive: 11.6 µM [activator, partial curve, poor fit]
45 | Cc1cccc(S(=O)(=O)N2CCn3cccc3C2C)c1 (stereo not given) | inactive
46 | CC(=O)c1c(C)[nH]c(C(=O)OCc2nc3ccsc3c(=O)[nH]2)c1C | inconclusive: 4.61 µM [activator, partial curve, poor fit]
47 | Cc1nn(Cc2ccc(Cl)c(Cl)c2)c(C)c1NC(=O)c1cc(CC(C)C)on1 | inconclusive: 23.1 µM [activator, single point]
48 | COc1ccc2nc(SCCC(=O)O)cc(C)c2c1 | inactive
49 | COc1ccccc1Nc1nc(N)nc(CN2CCCCC2)n1 | inactive
50 | O=C(Nc1ccc(F)c(Cl)c1)c1ccc2c(c1)OCO2 | inconclusive: 3.66 µM [activator, full curve]

Row | SMILES | Potency
51 | CC(=O)c1cccc(NC(=S)NC(=O)c2cccc(Cl)c2)c1 | inconclusive: 29.1 µM [activator, single point]
52 | Cc1cc(C(=O)CSc2nnnn2C)c(C)n1-c1cccc(F)c1 | inconclusive: 2.59 µM [activator, full curve]
53 | COc1ccc(NC(=O)[C@H](C)NC(=O)C2CCN(S(=O)(=O)c3ccc(C)cc3)CC2)cc1OC | inactive
54 | CCC1CCCCN1CCCNC(=O)c1ccc2nc(N3CCCCC3)sc2c1 (stereo not given) | inconclusive: 0.73 µM [activator, full curve]
55 | O=C(/C=C/c1ccc(-c2ccccc2)cc1)NCc1cccnc1 | inactive
56 | O=C(O)CN(c1ccccc1)S(=O)(=O)c1cc(C(F)(F)F)cc(C(F)(F)F)c1 | inactive
57 | CN(CCC#N)C(=O)COC(=O)c1ccc2[nH]c3c(c2c1)CCCC3 | inactive
58 | CC1=NN(c2ccccc2)C(=O)/C1=C\c1ccc(Br)s1 | inconclusive: 20.6 µM [activator, partial curve, poor fit]
59 | COC(=O)c1sc(NC(=S)NC(=O)c2ccccc2)nc1C | inconclusive: 3.66 µM [activator, full curve, poor fit]
60 | CCc1nnc(NC(=O)c2csc3c2CCC(C)C3)s1 (stereo not given) | inconclusive: 3.66 µM [activator, partial curve]
61 | Cc1cccc(C)c1Nc1nnc(SCc2nc3ccccc3s2)s1 | inconclusive: 16.4 µM [activator, partial curve]
62 | Cc1cccc(C(=O)NNC(=O)c2c(-c3ccccc3Cl)noc2C)c1O | inactive
63 | COC(=O)c1[nH]c2c(c1C)C(=O)CC(c1cccs1)C2 (stereo not given) | inconclusive: 6.51 µM [activator, partial curve]
64 | COC(=O)N/N=C\c1c(C)nn(-c2ccccc2)c1Cl | inconclusive: 18.4 µM [activator, partial curve]
65 | NC(=O)C1CCN(C(=O)CCC(=O)c2cccs2)CC1 | inactive
66 | Cc1ccsc1CCNC(=O)C1CCC(=O)N(CCc2cccc(F)c2)C1 (stereo not given) | inconclusive: 7.3 µM [activator, partial curve]
67 | Nc1c(-c2cccc(Cl)c2)cnc2c(-c3ccccc3)cnn12 | inconclusive: 3.66 µM [activator, full curve]
68 | O=C(O)C1CCCN1S(=O)(=O)c1cccc2nsnc12 (stereo not given) | inactive
69 | COc1ccc(NC(=O)c2cc(C)n(Cc3cccs3)c2C)cc1 | inconclusive: 2.59 µM [activator, partial curve]
70 | Brc1ccc(-c2noc(COc3ccc4c(c3)CCC4)n2)o1 | inconclusive: 29.1 µM [activator, single point]
71 | CCN(Cc1ccccc1)C(=O)c1cccc(S(=O)(=O)N2CCN(Cc3ccccc3)CC2)c1 | inconclusive: 32.6 µM [activator, partial curve, poor fit]
72 | CC(=O)Nc1cccc(N/C=C(\C=O)c2nc3ccccc3o2)c1 | inactive
73 | CCC(=O)Nc1ccc(NC(=O)c2ccco2)cc1 | inconclusive: 4.61 µM [activator, single point]
74 | Cc1ccc(NCc2ccccc2O)cc1 | inconclusive: 29.1 µM [activator, single point]
75 | O=c1c2cccc(Cl)c2nc2n1Cc1ccccc1-2 | inconclusive: 18.3 µM [activator, partial curve, poor fit]
